Experimental data as given in PubChem BioAssay (NCI).
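Cultured in 96-well plates, cells were exposed to test compound for 48 hours across five concentrations. Here, GI50 denotes the concentration required for 50% inhibition of growth. At the TGI there is no net growth.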

Tested on: NCI-H322M lung
Test: DTP human tumour cell line panel, 48 h

Nc1cc(F)ccc1NC(=O)c1ccc(NC(=O)C/C=C/c2cccnc2)cn1 gave a GI50 of 2290 nM and a TGI of over 50000 nM.
